# From PubChem BioAssay AID463173 (ICCB-Longwood Screening Facility, Harvard Medical School, 2010)
# Out of some 52,000 compounds screened, about 1,700 (3.3%) were called active. Rule as the data show it: active = survival mostly below about 52% (no sharp cut-off); inactive = mostly above about 56%. The list shows a part of the results.
# Test system: Wild type
# Assay: growth inhibition of S. aureus wild type versus tarO mutant, primary screen, teichoic acid synthesis inhibitors, RN4220, OD600 (AID 463173)
# Conditions: S. aureus RN4220 wild type/DeltatarO growth, OD600, 18 h, stronger effect = lower value, screened at 18.75 µg/mL (by protocol)
row,Compound,survival
1,O=C(CSc1nc(=O)n(Cc2ccncc2)c2c1CCC2)Nc1ccccc1,inactive: 86%
2,COc1cccc(CNC(=O)CCc2c(C)c3cc4c(C)coc4cc3oc2=O)c1,inactive: 71%
3,O=c1c(S(=O)(=O)c2ccccc2)cn(Cc2ccc(F)cc2)c2cc(N3CCCC3)c(F)cc12,inactive: 64%
4,Cc1ccc(OCc2cc(=O)n3c4c(sc3n2)CCCC4)c(C)c1,inactive: 82%
5,COc1cccc(CNC(=O)C2CCC(CNS(=O)(=O)c3cccs3)CC2)c1 (centres undefined),inactive: 71%
6,CCCC(=O)N(c1ccc2oc3c(c2c1)CCCC3)S(=O)(=O)c1ccc(CC)cc1,inactive: 67%
7,CC(=O)NC1C(OC2=CC3OC(=O)CC(C)=C3C=C2)OC(CO)C(O)C1O (centres undefined),inactive: 109%
8,COc1cccc(NC(=O)c2sc(-n3nc(C)c(Cc4ccccc4Cl)c3C)nc2C)c1,inactive: 98%
9,CC1CCN(S(=O)(=O)c2ccc3c(c2)N(CC(=O)NCc2ccccc2Cl)C(=O)CO3)CC1,inactive: 153%
10,COc1ccc(OC)c(-n2c(=O)[nH]c3cc(C(=O)NCCc4ccc(OC)c(OC)c4)ccc3c2=O)c1,inactive: 84%
11,Cc1ccccc1NC(=O)c1ccc(NC(=O)N2CCSc3ncccc32)cc1,active: -4%
12,Cc1cc(N2CCCC2)nc(SCC(=O)c2ccccc2)n1,inactive: 110%
13,COc1ccc(NCc2nc3ccccc3n2CCOc2ccccc2C)cc1,active: 4%
14,S=c1[nH]nc(CCn2c3ccccc3c3ccccc32)n1-c1ccccc1,inactive: 112%
15,Cc1ccc(N(C)C(=O)Cn2nc(Cc3ccncc3)c3ccccc3c2=O)cc1C,inactive: 81%
16,Cc1ccc(CNS(=O)(=O)c2ccc(F)c(C(=O)Nc3ccc(C)c(F)c3)c2)cc1,inactive: 64%
17,O=C(Nc1ccc(F)cc1)c1ccc(-n2cnc3cccnc32)cc1,inactive: 97%
18,O=C(NCCc1ccc(Cl)cc1)c1ccc(CS(=O)(=O)Cc2ccc(F)cc2)o1,inactive: 76%
19,O=C(NCCS(=O)(=O)N1CCN(c2ccccc2F)CC1)c1cc(=O)c2ccccc2o1,inactive: 68%
20,COC(=O)c1c(SC)nc2ccccc2c1OCc1cccc(C)c1,inactive: 74%
21,COc1cccc(COC(=O)c2nn(-c3ccccc3)nc2N)c1,inactive: 24%
22,CCC(CC)C(=O)Nc1cccc(-c2nc3cccnc3s2)c1,inactive: 90%
23,COc1cc(OC)c(NC(=O)C(C)n2c(=O)cc(-c3ccccc3)c3c(C)nn(C)c32)cc1Cl (centres undefined),inactive: 73%
24,CCOc1ccc(-c2nc(Cn3c(=O)cc(-c4ccccc4)c4c(C)nn(C)c43)c(C)o2)cc1OC,inactive: 134%
